{
  "source": "the RNAGym collection of RNA variant scans (doi:10.1093/nar/gkz1192)",
  "parents": {"B1": {"name": "CPEB3 Ribozyme (parent)", "chain": "UAACAGGGGGCCACAGCAGAAGCGUUCACGUCGCAGCCCCUGUCAGAUUCUGGUGAAUCUGCGAAUUCUGCUGUAUAUCUC"}},
  "note": "The source gives no read counts; variants with many changes may rest on few reads.",
  "data": [
    {"variants_of": "B1", "assay": "self-cleavage, relative activity (ratio to wild type); higher = more cleavage; in vitro, sequencing", "how_it_was_run": "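CPEB3 self-cleaving ribozyme mutant libraries were made by rounds of error-prone PCR, barcoded, and transcribed in vitro with T7 RNA polymerase for 5 hours at 37°C. Cleavage occurred during transcription and a 15 min DNase I step before EDTA stop. RNAs were reverse transcribed with template switching and Illumina-sequenced, with DNA sequencing mapping barcodes to variants. Relative activity is the variant's cleaved/total read fraction divided by wild type's (minimum 5 reads), averaged across three batches.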", "values": [
      {"variant": "A15C C32U U41A U80A", "self-cleavage": 0.09},
      {"variant": "A15G A18U C40U A57U U66A", "self-cleavage": 0.19},
      {"variant": "A15G A21C U25C U76C", "self-cleavage": 0.26},
      {"variant": "A15G A21G A35U U41A A56U", "self-cleavage": 0.16},
      {"variant": "A15G A18U U26C U54C U66C A75G", "self-cleavage": 0.08},
      {"variant": "A15C G19A G55C U69C", "self-cleavage": 0.09},
      {"variant": "A15G A20U U26A U41C U48C G63A", "self-cleavage": 0.06},
      {"variant": "A15G A20G G52U U58G A75U U78C", "self-cleavage": 0.16},
      {"variant": "A15C A28U U48C U76A", "self-cleavage": 0.41},
      {"variant": "A15G A20G G24A G30U", "self-cleavage": 0.4},
      {"variant": "A15G A18G U41C U51C A56G U69A", "self-cleavage": 0.12},
      {"variant": "A15G A18G U43A A45G A64U U74C U80C", "self-cleavage": 0.13},
      {"variant": "A15C U26C C34U", "self-cleavage": 0.21},
      {"variant": "A15G A18G U26C U41A", "self-cleavage": 0.06},
      {"variant": "A15G A21G U26C C44A", "self-cleavage": 0.04},
      {"variant": "A15C G22U U26C G63U A64G U78C", "self-cleavage": 0.12},
      {"variant": "A15G A18G A47G U72A U78A", "self-cleavage": 0.16},
      {"variant": "A15G A18G U48C A56G U67C U69C", "self-cleavage": 0.21},
      {"variant": "A15G A18U A35G C37A A56G G61A U69C", "self-cleavage": 0.05},
      {"variant": "A15G A18G G30A A75G", "self-cleavage": 0.05},
      {"variant": "A15C U31C A35G U60C", "self-cleavage": 0.8},
      {"variant": "A15C C38U U58C A77U", "self-cleavage": 0.32},
      {"variant": "A15G A21G U48C A57G U76A", "self-cleavage": 0.7},
      {"variant": "A15G A21U G33A U72A", "self-cleavage": 0.05},
      {"variant": "A15G A20U U41C U72A", "self-cleavage": 0.24},
      {"variant": "A15G A20G U26A G36A G52A U60C", "self-cleavage": 0.06},
      {"variant": "A15G A18G G24A", "self-cleavage": 0.31},
      {"variant": "A15G A18G G33A G46U U67C A77U", "self-cleavage": 0.08},
      {"variant": "A15C U26A A56C U80A", "self-cleavage": 0.25},
      {"variant": "A15G A18U G33A U49A U58C U67C U74A", "self-cleavage": 0.03},
      {"variant": "A15G A20U A21U U26C A45G A56G A65G", "self-cleavage": 0.14},
      {"variant": "A15C G42A A57G A77G", "self-cleavage": 0.08},
      {"variant": "A15G A18G A35U U41C U66C U80C", "self-cleavage": 0.21},
      {"variant": "A15G A20G A28C U51C", "self-cleavage": 0.18},
      {"variant": "A15G A18G C27G A28U G52U", "self-cleavage": 0.29},
      {"variant": "A15G A21G A56U", "self-cleavage": 0.14},
      {"variant": "A15C A56G A75U", "self-cleavage": 1.04},
      {"variant": "A15G A20G U41G U69C", "self-cleavage": 0.33},
      {"variant": "A15G A18G U48C U49C A64G", "self-cleavage": 0.07},
      {"variant": "A15G A18G C38U", "self-cleavage": 0.1},
      {"variant": "A15G A18G C38A", "self-cleavage": 0.44},
      {"variant": "A15G A20U U66A U80A", "self-cleavage": 0.19},
      {"variant": "A15G A18U A20G U54C", "self-cleavage": 0.3},
      {"variant": "A15C C17U C37G U43A", "self-cleavage": 0.28},
      {"variant": "A15C U26A U49C U72C U78C", "self-cleavage": 0.26},
      {"variant": "A15G A21G U26C C32U U67C", "self-cleavage": 0.05},
      {"variant": "A15G A18G G33A A45C U51G U67C U74A", "self-cleavage": 0.03},
      {"variant": "A15G A20G C23A C40U U41A", "self-cleavage": 0.38},
      {"variant": "A15G A18U U41A", "self-cleavage": 0.2},
      {"variant": "A15G A20G U41C U74C", "self-cleavage": 0.9},
      {"variant": "A15G A18G U48C U69C U76G", "self-cleavage": 0.16},
      {"variant": "A15C U43C A65G U80C", "self-cleavage": 0.18},
      {"variant": "A15C A45G U60C", "self-cleavage": 0.97},
      {"variant": "A15C A35G U43C U66C U69A", "self-cleavage": 0.14},
      {"variant": "A15C U51A A56G", "self-cleavage": 0.35},
      {"variant": "A15G A18G U31A", "self-cleavage": 0.45},
      {"variant": "A15C C37U U41C U43C A45U U48C U72A", "self-cleavage": 0.07},
      {"variant": "A15G A18U A65G U69G U80C", "self-cleavage": 0.17},
      {"variant": "A15G A21G A57G U76C U80A", "self-cleavage": 0.2},
      {"variant": "A15C C40A U69A", "self-cleavage": 0.18},
      {"variant": "A15G A21C A56G U69A", "self-cleavage": 0.28},
      {"variant": "A15G A20G U51A G52A U58A A65G", "self-cleavage": 0.34},
      {"variant": "A15G A18G A21G G42U U51C", "self-cleavage": 0.18},
      {"variant": "A15G A18G G30A U41C U69C", "self-cleavage": 0.12},
      {"variant": "A15C G16A C17U", "self-cleavage": 0.12},
      {"variant": "A15G A21G G30A A35G U48C U76C U78C", "self-cleavage": 0.06},
      {"variant": "A15G A18G A64U U78A", "self-cleavage": 0.25},
      {"variant": "A15G A21U C27U A56U U69C", "self-cleavage": 0.05},
      {"variant": "A15G A20G U43A U49C A57U", "self-cleavage": 0.14},
      {"variant": "A15G A21G G24U U25C C59G A65G", "self-cleavage": 0.05},
      {"variant": "A15C U26C U41A A47U G70U U78C", "self-cleavage": 0.11},
      {"variant": "A15G A20G A45G U49C A57G U80A", "self-cleavage": 0.07},
      {"variant": "A15G A20U U60C", "self-cleavage": 0.29},
      {"variant": "A15G A18G U26A A28G U41C", "self-cleavage": 0.39},
      {"variant": "A15G A20C U74G", "self-cleavage": 0.38},
      {"variant": "A15G A21G U25A U51G A65G U67C A77G", "self-cleavage": 0.19},
      {"variant": "A15G A18U U25C A35U U41C A47G A75G", "self-cleavage": 0.06},
      {"variant": "A15G A21G A45C", "self-cleavage": 0.37},
      {"variant": "A15G A21G A45G", "self-cleavage": 0.43},
      {"variant": "A15C A35U U60A", "self-cleavage": 0.11},
      {"variant": "A15G A20G A35G A57G U58C U72C", "self-cleavage": 0.08},
      {"variant": "A15G A21U U43C C62U", "self-cleavage": 0.07},
      {"variant": "A15G A21G A28G", "self-cleavage": 0.53},
      {"variant": "A15G A20G U51A", "self-cleavage": 0.53}
    ]}
  ]
}
